# From PubChem BioAssay AID686971 (National Center for Advancing Translational Sciences (NCATS), 2013)
# Screen size: about 360,000 compounds; about 7,500 (2.1%) were called active. Inconclusive results, whose numbers are uncertain, are shown with a selection of clear calls. The call rests on the fitted dose curve; in most records, active means well fitted cell-killing curve with a large enough effect; inconclusive means small, poorly fitted or top-dose-only effect, or effect the other way, or another doubt; inactive means no such curve, though single readings can be large or run the other way. No potency is given beside an inconclusive call; the fits are too rough.
# Test: qHTS for induction of synthetic lethality in tumor cells producing 2HG: qHTS for the HT-1080-IDH1KD cell line;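 on activity, negative = toxicity: 0% = DMSO wells and -100% = cell-free medium wells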
# Settings: HT-1080 IDH1 knockdown viability, ATP luminescence, 48 h; activity, negative = toxicity: at 46.1 µM (top of the series) unless noted
# Outline: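 Luminescent ATP read-out (CellTiter-Glo, 10 min at room temperature) after 48 h compound exposure at 37 °C gave viability of IDH1-knockdown HT-1080 cells. Activity was normalised to DMSO and cell-free wells, then fitted as concentration-response curves.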
# Potency means the concentration at half of the fitted maximal effect; tags describe the fitted curve by direction and shape.
Structure (SMILES),"activity, negative = toxicity",Potency
COc1ccc(C(=O)N2CCOC2CNC(=O)C(=O)NCc2ccc(F)cc2)cc1 (configuration not stated),inconclusive: -33.6% [cytotoxic],
COc1cccc(C(=O)Nc2ccc(N3CCN(C(=O)c4cccs4)CC3)cc2)c1,,active: 2.59 µM
CC(=O)c1ccc(OC2(C)CCN(Cc3cc4ccccc4[nH]3)C2)cc1 (configuration not stated),inactive: -7.94%,
COc1ccc(NC(=O)C2CCN(S(=O)(=O)c3ccc(OC)c(OC)c3)CC2)cc1,inactive: 0.518% [at 9.24 µM],
COc1cc(NC(=O)c2ccc(NC3=NC4CS(=O)(=O)CC4S3)cc2)cc(OC)c1OC (configuration not stated),inactive: 5.26%,
c1ccc(CN2CCC(N=C3NN=C(c4ccc5c(c4)OCCO5)CS3)CC2)cc1,,"inconclusive [cytotoxic, single point]"
Cc1ccc(NC(=O)COc2ccc(-n3cnnn3)cc2)cc1C,inactive: 4.01%,
Cc1ccc(C(=O)N2CCN(c3ccc4c(c3)C3CC4CCN3C(=O)OCc3ccccc3)CC2)cc1 (configuration not stated),,"inconclusive [cytotoxic, single point]"
Cc1cc(C)cc(NC(=O)Nc2ccc(N3CCCCC3)cc2)c1,,"inconclusive [cytotoxic, single point]"
NC(=O)CSc1nnc(Cc2ccc3c(c2)OCO3)o1,inactive: 3.97%,
CCC(CC)C1C(C#N)=C(N)Oc2n[nH]c(C)c21 (configuration not stated),,active: 11.2 µM
O=C(CCCc1ccccc1)NC12CC3CC(CC(C3)C1)C2,inactive: -3.84%,
CCOc1cc(NC(=O)CCl)c(OCC)cc1NC(=O)CCl,,"inconclusive [cytotoxic, full curve]"
CC(=O)N1N=C(c2ccc(C)cc2)OC1c1ccc(Br)cc1 (configuration not stated),inactive: -10.2%,
CCCn1c(N)c(N(CCOC)C(=O)CSc2cc(C)c3ccccc3n2)c(=O)[nH]c1=O,inactive: 0.954%,
O=C(COc1ccc2ccccc2c1CN1CCOCC1)N1CCc2ccccc21,,"inconclusive [cytotoxic, single point]"
Cc1ccc2[nH]c(=O)c(C3C(C#N)=C(N)Oc4c3ccc3cccnc43)cc2c1 (configuration not stated),,"inconclusive [cytotoxic, partial curve]"
Oc1ccc(/C=N/Nc2nc(-c3ccc(Cl)cc3)cc(C(F)(F)F)n2)cc1,,active: 16.4 µM
CCOC(=O)c1[nH]c(=O)[nH]c1CSc1nc(C)cc(C)n1,inactive: 0.901%,
CC1(c2nc3ccccc3[nH]2)CCCC2=Nc3ccccc3CN21 (configuration not stated),inactive: -18.6%,
O=C(N/N=C/c1ccc([N+](=O)[O-])o1)C1CCCC1,,"inconclusive [cytotoxic, single point]"
Cc1cc(C)n(-c2nc3sc4c(c3c3nnc(SC(C)C)n23)CC(C)(C)OC4)n1,inactive: -5.4%,
CSc1nnc(-c2ccccc2N=Cc2c(C)[nH]n(-c3ccc4ccccc4c3)c2=O)c(=O)[nH]1,,"inconclusive [cytotoxic, single point]"
COc1ccc(CCNC(=O)c2cc(S(=O)(=O)N3CCCCCC3)ccc2OC)cc1OC,,"inconclusive [cytotoxic, single point]"

Structure (SMILES),"activity, negative = toxicity",Potency
c1ccc(-n2cnc3cc(NCc4ccccn4)ccc32)cc1,inactive: 1.37%,
COc1ccc2cc(C(=O)N3CCN(Cc4ccc5c(c4)OCO5)CC3)[nH]c2c1,inactive: -21%,
Cc1cnccc1CN(C)Cc1cn(C)nc1-c1ccc(Oc2ccccc2)cc1,,"inconclusive [cytotoxic, single point]"
CC(=O)N1C(=O)c2cccc3cccc(c23)C(=O)N1C(C)=O,inactive: -3.48%,
CC(=O)c1cccc(-c2ccnc3c2CC(C(=O)NCC2CC2)O3)c1 (configuration not stated),,"inconclusive [cytotoxic, single point]"
CCOC(=O)c1c(C)[nH]c(C(=O)OC(C)C(=O)Nc2ccc(C)cc2)c1C (configuration not stated),inactive: 6.11%,
O=S1(=O)CC/C(=N\Nc2ccc(F)cc2)c2ccsc21,,"inconclusive [cytotoxic, partial curve]"
CCOC(=O)c1ccc(N=c2sc(C(=O)OC)cc(=O)n2Cc2ccco2)cc1,,"inconclusive [cytotoxic, single point]"
C(=N\Nc1ncnc2ccccc12)/c1ccccc1,,"inconclusive [cytotoxic, single point]"
Cc1ccc(Oc2ccc(C=O)cn2)cc1,,"inconclusive [rising, single point]"
CN(C)CCCN(C(=O)c1ccc(S(=O)(=O)N(C)C2CCCCC2)cc1)c1nc2ccc(F)cc2s1,,"inconclusive [cytotoxic, single point]"
CC(C)(C)c1ccc(C(=O)N/C(=C\c2cccs2)C(=O)N2CCOCC2)cc1,inactive: -11.5%,
CCSS(=O)(=O)c1cccc2cccnc12,,"inconclusive [cytotoxic, single point]"
Cc1cc(-n2c(C)cc(C(=O)CSc3ncnc4ccccc34)c2C)no1,,"inconclusive [cytotoxic, full curve]"
Clc1ccc(-c2nc3ccc(Cl)cn3c2Cc2ccsc2)cc1,,"inconclusive [cytotoxic, single point]"
Cn1c(CCN2CCCCC2)nc2cc(NC(=O)COc3ccc(Cl)cc3)ccc21,,"inconclusive [cytotoxic, single point]"
COc1ccc(CNCCCn2cnc3c(SC)ncnc32)cc1,inactive: -5.14%,
COc1cccc(NC(=O)c2oc3ccccc3c2NC(=O)C2CC2)c1,,"inconclusive [cytotoxic, single point]"
COc1cc(/C=C/c2c([N+](=O)[O-])c(=O)n(C)c(=O)n2C)cc(OC)c1OC,,"inconclusive [cytotoxic, single point]"
COc1cc(OC)cc(C(=O)NNC(=O)c2ccc3ccccc3n2)c1,,active: 20.6 µM
CC(=O)Nc1ccc(S(=O)(=O)NCc2cc(=O)n(C)c(=O)n2C)cc1,inactive: 7.05%,
Cc1ccc(Cl)cc1N1CCN(S(=O)(=O)c2ccc3[nH]c(=O)ccc3c2)CC1,,"inconclusive [cytotoxic, single point]"
COc1ccc(-c2ccc(CN3C(C)C(=O)N(Cc4cn(Cc5ccco5)nn4)CCS3(=O)=O)cc2)cc1 (configuration not stated),,"inconclusive [cytotoxic, single point]"
Cc1cc(C)c2nc(N3CCCC(C(=O)NCCCN4CCOCC4)C3)sc2c1 (configuration not stated),,"inconclusive [cytotoxic, single point]"

Structure (SMILES),"activity, negative = toxicity",Potency
COCOCCn1cc(CN2CCS(=O)(=O)N(Cc3ccc(-c4ccc(OC)cc4)cc3)C(CC(C)C)C2=O)nn1 (configuration not stated),,"inconclusive [cytotoxic, single point]"
COc1cc(OC)cc(-c2c(-c3cccs3)c3cc(-c4ccc(OC)c(F)c4)ccc3n2C)c1,inactive: -3.64%,
C=CCc1cccc(/C=N/NC(=O)CCCNc2ccc(C)cc2)c1O,,"inconclusive [cytotoxic, single point]"
Cc1ccccc1OCCn1c(C)nc2ccccc21,,"inconclusive [cytotoxic, single point]"
O=C(CC1NCCc2ccccc21)Nc1ccc(Cl)cc1 (configuration not stated),,"inconclusive [cytotoxic, partial curve]"
Cc1noc(C)c1COC(=O)COc1cccc2c1OC(C)(C)C2,inactive: 13.4%,
O=C(CN1CSCC1=O)N1CCN(S(=O)(=O)c2cc(C(F)(F)F)ccc2Cl)CC1,inactive: 8.01%,
Cc1cccc(C)c1NC(=O)C1(C)CN(S(C)(=O)=O)CC(=O)N1C1CC1 (configuration not stated),inactive: 6.7%,
CCc1nc2c(OCCc3cccc(OC)c3)cccn2c1N(C)C(=O)c1cccs1,,"inconclusive [cytotoxic, single point]"
O=C(CNc1cccc(C(F)(F)F)c1)N/N=C/c1cn(-c2ccccc2)nc1-c1ccccc1,,"inconclusive [cytotoxic, single point]"
O=C(COC(=O)c1cc(-c2ccc(Cl)s2)nc2ccccc12)NCc1ccco1,,"inconclusive [cytotoxic, single point]"
COc1ccc(-c2cc(NC=O)c3ncc(-c4ccccc4)n3c2)cc1OC,,active: 16.4 µM
Clc1ccccc1CN1CCN(/N=C/c2ccncc2)CC1,inactive: -0.953%,
Cc1cc(C)c(S(=O)(=O)/N=C2/C=C(SCC(=O)O)C(=O)c3ccccc32)cc1C,,"inconclusive [cytotoxic, single point]"
CC1CCCCN1CCNC(=O)c1ccc2c(c1)N(Cc1ccccc1F)C(=O)c1ccccc1S2=O (configuration not stated),,"inconclusive [cytotoxic, single point]"
COc1ccc(-c2oc3ccc(N4CCOCC4)cc3c2C#Cc2ccc(N)cc2)cc1,,active: 23.1 µM
COC(=O)c1ccc(CNC(=O)c2cc(COc3cncc(Cl)c3)on2)cc1,,"inconclusive [cytotoxic, single point]"
O=S(=O)(Nc1nc2ccc(S(=O)(=O)N3CCCCC3)cc2s1)c1ccccc1,,"inconclusive [cytotoxic, single point]"
CCc1nc2c(OCc3ccc(C(F)(F)F)cc3)cccn2c1N(C=O)Cc1ccc(OC)cc1,,"inconclusive [cytotoxic, single point]"
O=C(NC(=S)Nc1ccc(N2CCCCC2)cc1)c1ccco1,,active: 14.1 µM
O=C(C1CCCN(S(=O)(=O)c2cccc3nsnc23)C1)N1CC=C(c2ccccc2)CC1 (configuration not stated),,"inconclusive [cytotoxic, single point]"
COc1ccc(C(=O)OCC(=O)c2ccc(F)cc2)cc1OC,inactive: -15.6%,
O=C(CN1CCN(Cc2ccccc2)CC1)N/N=C/C=C/c1ccccc1[N+](=O)[O-],inactive: 20%,
O=C(Cn1ccc(=O)[nH]c1=O)c1ccc([N+](=O)[O-])o1,,"inconclusive [cytotoxic, single point]"
